Experimental data as given in the supplement of paper PMC3334620.
The full ranking holds about 33,000 sequences; the median of “E-score (-0.5 to 0.5)” is about -0.016, and the highest 2% start at about 0.31. The list shows a part of the results.

These sequences were tested against Cst6 (UniProt P40535) (assay: PBM E-score (8-mer binding enrichment) (E-score (-0.5 to 0.5)); higher = stronger / more preferred TF binding; most listed sequences are background and not binding sites). Conditions: protein concentration: 200 nM; construct: GST-DNA-binding domain.
Procedure, shortened: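 Universal all-10-mer Agilent arrays, double-stranded by primer extension on fresh or once-stripped slides, were probed with about 100-200 nM GST-tagged yeast transcription factors made by PURExpress. Fluorescent anti-GST detected bound protein, and masliner normalised the scans. E-scores from the Universal PBM Analysis Suite were given to each ungapped eight-base word pooled with its reverse complement.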

First: GAAAGGGA
Second: GCACTAAC
The “PBM E-score” value of the first is higher: 0.0133 for the first, -0.119 for the second.

Going from AGCGGCTG to GAACTCAA, the “PBM E-score” value falls from -0.103 to -0.149.

Compared with CTGTGCTC, AATTTTTG is higher in “PBM E-score” value: -0.0956 for the first, 0.283 for the second.

First: AATCGTGG
Second: CCCTCACG
The “PBM E-score” value of the first is higher: 0.136 for the first, -0.084 for the second.

Going from GCATGCCC to GGGTTGAC, the “PBM E-score” value rises from -0.0157 to 0.071.

Compared with AAAAGGAG, AGACGACG is higher in “PBM E-score” value: -0.153 for the first, -0.0212 for the second.

Going from ATCCAGTA to CCCTTGTA, the “PBM E-score” value falls from -0.0439 to -0.204.

Going from TAGGCACA to GTGATTTA, the “PBM E-score” value rises from 0.062 to 0.165.

First: TCCGGGAA
Second: CAGAGATC
The “PBM E-score” value of the first is higher: 0.0328 for the first, -0.0588 for the second.

Going from GAGCTCGA to ATGCCCTC, the “PBM E-score” value falls from 0.0164 to -0.0437.

Compared with CTACAGAA, CCTTTGTC is lower in “PBM E-score” value: 0.0652 for the first, -0.0975 for the second.

Compared with ATCATCGC, CAGAAATA is higher in “PBM E-score” value: 0.179 for the first, 0.217 for the second.

Compared with AACGGCAC, CTCCGAAG is lower in “PBM E-score” value: 0.343 for the first, -0.197 for the second.

First: AAACATTA
Second: CCCACAGG
The “PBM E-score” value of the first is higher: 0.0438 for the first, -0.223 for the second.

Compared with CCGCTTAG, CGGCCGGA is lower in “PBM E-score” value: -0.134 for the first, -0.145 for the second.

First: TCTAACCA
Second: CCTACAGC
The “PBM E-score” value of the first is higher: 0.057 for the first, -0.209 for the second.

Compared with GCTCGCAC, AAGTCAAA is higher in “PBM E-score” value: -0.211 for the first, 0.132 for the second.

Going from AAGCACGG to TGAGGACA, the “PBM E-score” value rises from -0.0413 to 0.0707.

Going from CAGGATTA to GTATCAAC, the “PBM E-score” value falls from 0.169 to -0.0365.

Going from CGAGCACC to ACGACGAT, the “PBM E-score” value rises from -0.189 to 0.157.

Going from AAATATGG to CTTGGGCC, the “PBM E-score” value falls from -0.00593 to -0.229.

Compared with ATCAAGGG, ACTGAGAT is lower in “PBM E-score” value: 0.0863 for the first, -0.0678 for the second.

Going from AACTAAAG to AGGGAACA, the “PBM E-score” value falls from 0.229 to -0.12.

Compared with TACGCATA, CTTGTCGC is lower in “PBM E-score” value: 0.157 for the first, -0.133 for the second.

Going from TATCGAAA to TCAATTGA, the “PBM E-score” value rises from 0.195 to 0.287.

Going from CCAGCGCG to CATCGGTC, the “PBM E-score” value falls from -0.0669 to -0.215.

Going from GCAAGAAC to GCGCCCGC, the “PBM E-score” value falls from 0.107 to -0.133.

Compared with GCGATCCC, AACTGAAA is higher in “PBM E-score” value: -0.241 for the first, 0.178 for the second.

Compared with CCCAAGAC, CTCTCGCA is lower in “PBM E-score” value: -0.0855 for the first, -0.207 for the second.

Going from CATCTTCA to CAGAGATG, the “PBM E-score” value rises from -0.105 to 0.141.

Compared with CCTGACTC, AGACCTTC is higher in “PBM E-score” value: -0.247 for the first, -0.146 for the second.

Compared with GCCCATCA, GGCCAGAC is lower in “PBM E-score” value: -0.124 for the first, -0.152 for the second.

Going from GGATTAAA to GCGGTTGA, the “PBM E-score” value rises from 0.00456 to 0.0505.

Going from ATTTAGTA to TCTGGCCA, the “PBM E-score” value falls from 0.277 to -0.0762.

Going from ATGGGGCG to ATCGACGC, the “PBM E-score” value falls from 0.142 to 0.106.

Going from GCGATACC to AGAACTGA, the “PBM E-score” value rises from -0.131 to 0.192.

First: CCTTAGCA
Second: ACACTCCT
The “PBM E-score” value of the first is higher: -0.141 for the first, -0.201 for the second.

First: AATGATAA
Second: AATTCCAC
The “PBM E-score” value of the first is higher: 0.347 for the first, 0.0707 for the second.

Compared with TATACGAA, GGCCAACC is lower in “PBM E-score” value: 0.133 for the first, -0.141 for the second.

Going from AGGCGGCC to AGGTCGAC, the “PBM E-score” value falls from -0.0818 to -0.154.

Going from ACTTGCAC to AGACCACC, the “PBM E-score” value falls from 0.00046 to -0.137.

First: AAGTTCAT
Second: CACGTTGC
The “PBM E-score” value of the first is higher: 0.0195 for the first, -0.00118 for the second.

First: AGGGAGTA
Second: GGACCCCC
The “PBM E-score” value of the first is higher: -0.178 for the first, -0.431 for the second.

Compared with GAGCGCGC, AAACGTAT is higher in “PBM E-score” value: 0.116 for the first, 0.276 for the second.

Going from ACTGGCAA to ACCGTAAA, the “PBM E-score” value rises from -0.043 to 0.144.

Compared with GCGCAAAA, AAATGTGG is lower in “PBM E-score” value: 0.126 for the first, 0.119 for the second.

Going from ATTCTATG to AGGATATG, the “PBM E-score” value falls from 0.164 to -0.00926.

Going from ATACCGAA to TGAACAAA, the “PBM E-score” value rises from 0.127 to 0.234.

Going from CAGTCTGG to ATACGGGC, the “PBM E-score” value rises from -0.236 to -0.204.

First: GCAGAATA
Second: CAACTCAC
The “PBM E-score” value of the first is higher: 0.174 for the first, 0.069 for the second.

Going from ACGAGCCC to CATCCAAG, the “PBM E-score” value rises from -0.166 to -0.101.

Compared with GCTAGTTA, CCTTCAAG is lower in “PBM E-score” value: 0.0209 for the first, -0.0915 for the second.

Going from AGCACGAT to AAGGGTAG, the “PBM E-score” value falls from 0.00212 to -0.0672.

Going from AGCGCGGA to CTTTGCCC, the “PBM E-score” value falls from -0.0997 to -0.272.

Going from ACGCACTA to ATGTATGG, the “PBM E-score” value falls from 0.0479 to 0.0177.

Compared with CCCCTGAA, AGACCCCC is lower in “PBM E-score” value: -0.109 for the first, -0.341 for the second.

First: ATCTATTA
Second: TATATGAA
The “PBM E-score” value of the first is higher: 0.259 for the first, 0.198 for the second.

Going from GAGGTATA to ACGATGCA, the “PBM E-score” value falls from 0.0979 to -0.00326.

First: ATAGTAGA
Second: ACTGTTGA
The “PBM E-score” value of the first is lower: -0.0203 for the first, 0.0234 for the second.

First: AGTATCTG
Second: AGTACTAA
The “PBM E-score” value of the first is lower: -0.139 for the first, 0.119 for the second.

Compared with AAGTTCCT, AAGACACG is higher in “PBM E-score” value: -0.0962 for the first, 0.222 for the second.

Compared with AGTCCGTC, AGATTCCA is higher in “PBM E-score” value: 0.11 for the first, 0.17 for the second.

Compared with ATGTTCAA, CGTGGTTA is higher in “PBM E-score” value: -0.0159 for the first, 0.0225 for the second.

First: CCGCCTTA
Second: CAGGTTGG
The “PBM E-score” value of the first is higher: 0.0538 for the first, -0.178 for the second.

Compared with ACAATGCA, CCGCACGG is higher in “PBM E-score” value: 0.147 for the first, 0.234 for the second.

First: CGAAAGCC
Second: TACAATCA
The “PBM E-score” value of the first is lower: -0.235 for the first, 0.0771 for the second.

Going from AAATGTAG to ATTCGTAC, the “PBM E-score” value rises from -0.0471 to 0.206.

Compared with AAGAGATA, ACAGCTCC is higher in “PBM E-score” value: -0.0328 for the first, 0.0842 for the second.

First: GATGTTCC
Second: AAGATGGA
The “PBM E-score” value of the first is lower: -0.184 for the first, -0.159 for the second.

First: AGCGTTGG
Second: GCTGCCCA
The “PBM E-score” value of the first is higher: -0.172 for the first, -0.226 for the second.

Compared with GCTAATCA, TATTGCCA is lower in “PBM E-score” value: 0.141 for the first, -0.0113 for the second.

Going from GCGCTGGA to ATTCGCTC, the “PBM E-score” value rises from -0.207 to 0.0295.

First: CGAAGTCA
Second: GAGCACTA
The “PBM E-score” value of the first is higher: 0.0581 for the first, -0.118 for the second.

First: ATCGCAAA
Second: AGTCTAGA
The “PBM E-score” value of the first is higher: 0.196 for the first, -0.124 for the second.

Going from TCCAAGGA to GATCAGGC, the “PBM E-score” value rises from -0.202 to -0.149.

First: ATTGAGTG
Second: TACTCCAA
The “PBM E-score” value of the first is higher: 0.2 for the first, -0.0919 for the second.

Compared with CTTCAGTC, TCTTCGCA is higher in “PBM E-score” value: -0.00275 for the first, 0.0454 for the second.

Going from AACGAAGG to ACGTCAAC, the “PBM E-score” value rises from -0.0764 to 0.484.

First: GATCGACA
Second: CCATTTGA
The “PBM E-score” value of the first is higher: 0.0229 for the first, -0.0854 for the second.

Going from CGTGCTAA to AATCTTGT, the “PBM E-score” value rises from 0.0279 to 0.185.

Going from GTCGCAGA to ACCCTCCC, the “PBM E-score” value rises from -0.0312 to 0.077.

First: GTCTTCAA
Second: ACTAGCGA
The “PBM E-score” value of the first is higher: 0.0203 for the first, -0.0939 for the second.

Going from AAACGGCA to ATACATCA, the “PBM E-score” value rises from 0.301 to 0.398.

Going from CCGCGGAG to CAGACATA, the “PBM E-score” value rises from -0.225 to 0.131.

Compared with CCTTCAGC, GACACTAC is higher in “PBM E-score” value: -0.19 for the first, 0.0584 for the second.

Going from CTAGAATA to ATACTCGC, the “PBM E-score” value falls from 0.173 to -0.132.
